These are yes or no findings as the source states them, for the method shown. Some results given as binding are weak or reduced against the parent protein; the word gives no strength.
T1: recombinant human BTLA protein (Novoprotein, product code C563) (human) (UniProt Q7Z6A9)
T1 sequence: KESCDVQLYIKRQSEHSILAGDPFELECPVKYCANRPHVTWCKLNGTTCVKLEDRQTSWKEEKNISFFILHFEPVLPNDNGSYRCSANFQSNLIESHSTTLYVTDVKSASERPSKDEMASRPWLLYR


Biological target: T1, recombinant human BTLA protein (Novoprotein, product code C563) (human)
Experiment: affinity microcolumn with MALDI-TOF MS; BTLA coupled to NHS-activated Sepharose in a microcolumn; peptide incubated 2 h at 25°C in NH4HCO3 pH 7.4; washed with 100 ml NH4HCO3 and 20 ml H2O; eluted with 0.1% TFA; supernatant, last wash and elution analysed by MALDI TOF/TOF; both purified

Binder	binding
YRVKEACGELTGTVCEP (N-terminal acetyl (Ac-); C-terminal amide (-NH2)) [HVEM(23–39) peptide]	binds
YRVKEASGELTGTVCEP (N-terminal acetyl (Ac-); C-terminal amide (-NH2)) [HVEM(23–39) C29S]	binds
YRVKEAYGELTGTVCEP (N-terminal acetyl (Ac-); C-terminal amide (-NH2)) [HVEM(23–39) C29Y]	binds
ELTGTVCEP (N-terminal acetyl (Ac-); C-terminal amide (-NH2)) [HVEM(31–39)]	binds
ELCAGPVTRKVECTYGE (N-terminal acetyl (Ac-); C-terminal amide (-NH2)) [Scrambled peptide]	no binding
ELTGTVSEP (N-terminal acetyl (Ac-); C-terminal amide (-NH2)) [HVEM(31–39) C37S]	no binding

From PMC5464627, “Design of short peptides to block BTLA/HVEM interactions for promoting anticancer T-cell responses” (PLoS ONE, 2017)
